{"source": "patent US6383763B1", "about": "“Detection of mycobacteria” (priority 1996, dated 2002)", "molecular_target": "M. avium filtrate (Mycobacterium avium, UniProt Q06947)", "experiment": "Western blot of M. avium filtrate with murine antiserum against alpha antigen peptides", "assay_type": "binding", "details": "serum of mice immunized with bead-bound peptide", "note": "Ends that are not written are not given here.", "data": [{"sequence": "QRNDPSLHIPELVGH (also: on polystyrene microparticles) [229 peptide, synthetic peptide of M. avium alpha antigen beginning at residue 229, on polystyrene microparticles]", "values": [{"measurement": "antigens recognized by the antibody preparation raised against the peptide", "value": "recognized the native 30 kD alpha antigen and no other proteins in M. avium filtrate"}]}]}
